# Results published in the supplement of paper PMC8728848.
# This is one part of the list.
# B1: SRA-1 (Homo sapiens), P21757 (protein)
# chain: MEQWDHFHNQQEDTDSCSESVKFDARSMTALLPPNPKNSPSLQEKLKSFKAALIALYLLVFAVLIPLIGIVAAQLLKWETKNCSVSSTNANDITQSLTGKGNDSEEEMRFQEVFMEHMSNMEKRIQHILDMEANLMDTEHFQNFSMTTDQRFNDILLQLSTLFSSVQGHGNAIDEISKSLISLNTTLLDLQLNIENLNGKIQENTFKQQEEISKLEERVYNVSAEIMAMKEEQVHLEQEIKGEVKVLNNITNDLRLKDWEHSQTLRNITLIQGPPGPPGEKGDRGPTGESGPRGFPGPIGPPGLKGDRGAIGFPGSRGLPGYAGRPGNSGPKGQKGEKGSGNTLTPFTKVRLVGGSGPHEGRVEILHSGQWGTICDDRWEVRVGQVVCRSLGYPGVQAVHKAAHFGQGTGPIWLNEVFCFGRESSIEECKIRQWGTRACSHSEDAGVTCTL
# Experiments:
# Assay in all cases: glycan array binding signal (z-score within array); higher = stronger binding
# Conditions in all cases: glycan notation: IUPAC condensed, linker removed
# Gal(b1-3)GalNAc(b1-3)Gal = biological target: Gal(b1-3)GalNAc(b1-3)Gal
# How it was run: (§1)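 Glycan array data came from 3228 arrays in the Consortium for Functional Glycomics database, and only arrays with an available protein sequence were kept. Glycan names were put into IUPAC-condensed notation, and columns mapping to the same glycan were averaged. The binding signal is a within-array Z-score, averaged across arrays of one protein sequence run at different concentrations or buffers and across linkers. A negative Z-score can be read as non-binding.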
# [1] = biological target: Gal(b1-3)GalNAc(b1-3)Gal(a1-4)Gal(b1-4)Glc
# How it was run: as §1
# [2] = biological target: Gal(b1-3)GalNAc(b1-4)Gal(b1-4)Glc
# How it was run: as §1
# [3] = biological target: Gal(b1-3)GalNAc(b1-4)[Neu5Ac(a2-3)]Gal(b1-4)Glc
# How it was run: as §1
# Gal(b1-3)GlcNAc = biological target: Gal(b1-3)GlcNAc
# How it was run: as §1
# [4] = biological target: Gal(b1-3)GlcNAc(a1-3)Gal(b1-4)GlcNAc
# How it was run: as §1
# [5] = biological target: Gal(b1-3)GlcNAc(a1-6)Gal(b1-4)GlcNAc
# How it was run: as §1
# Gal(b1-3)GlcNAc(b1-2)Man = biological target: Gal(b1-3)GlcNAc(b1-2)Man
# How it was run: as §1
# [6] = biological target: Gal(b1-3)GlcNAc(b1-2)Man(a1-3)[Gal(b1-3)GlcNAc(b1-2)Man(a1-6)]Man(b1-4)GlcNAc(b1-4)GlcNAc
# How it was run: as §1
# [7] = biological target: Gal(b1-3)GlcNAc(b1-2)Man(a1-3)[Gal(b1-3)GlcNAc(b1-2)Man(a1-6)]Man(b1-4)GlcNAc(b1-4)[Fuc(a1-6)]GlcNAc
# How it was run: as §1
# [8] = biological target: Gal(b1-3)GlcNAc(b1-2)Man(a1-3)[GlcNAc(b1-4)][Gal(b1-3)GlcNAc(b1-2)Man(a1-6)]Man(b1-4)GlcNAc(b1-4)GlcNAc
# How it was run: as §1
# [9] = biological target: Gal(b1-3)GlcNAc(b1-2)[Gal(b1-3)GlcNAc(b1-6)]Man(a1-6)[Gal(b1-3)GlcNAc(b1-2)Man(a1-3)]Man(b1-4)GlcNAc(b1-4)GlcNAc
# How it was run: as §1
# [10] = biological target: Gal(b1-3)GlcNAc(b1-3)Gal(b1-3)GlcNAc
# How it was run: as §1
# [11] = biological target: Gal(b1-3)GlcNAc(b1-3)Gal(b1-4)Glc
# How it was run: as §1
# [12] = biological target: Gal(b1-3)GlcNAc(b1-3)Gal(b1-4)GlcNAc
# How it was run: as §1
# [13] = biological target: Gal(b1-3)GlcNAc(b1-3)Gal(b1-4)GlcNAc(b1-2)Man(a1-3)[Gal(b1-3)GlcNAc(b1-3)Gal(b1-4)GlcNAc(b1-2)Man(a1-6)]Man(b1-4)GlcNAc(b1-4)GlcNAc
# How it was run: as §1
# [14] = biological target: Gal(b1-3)GlcNAc(b1-3)Gal(b1-4)GlcNAc(b1-2)[Gal(b1-3)GlcNAc(b1-3)Gal(b1-4)GlcNAc(b1-6)]Man(a1-6)[Gal(b1-3)GlcNAc(b1-3)Gal(b1-4)GlcNAc(b1-2)Man(a1-3)]Man(b1-4)GlcNAc(b1-4)[Fuc(a1-6)]GlcNAc
# How it was run: as §1
# [15] = biological target: Gal(b1-3)GlcNAc(b1-3)Gal(b1-4)GlcNAc(b1-3)Gal(b1-4)GlcNAc(b1-2)[Gal(b1-3)GlcNAc(b1-3)Gal(b1-4)GlcNAc(b1-3)Gal(b1-4)GlcNAc(b1-6)]Man(a1-6)[Gal(b1-3)GlcNAc(b1-3)Gal(b1-4)GlcNAc(b1-3)Gal(b1-4)GlcNAc(b1-2)Man(a1-3)]Man(b1-4)GlcNAc(b1-4)[Fuc(a1-6)]GlcNAc
# How it was run: as §1
# [16] = biological target: Gal(b1-3)GlcNAc(b1-3)Gal(b1-4)GlcNAc(b1-6)[Gal(b1-3)GlcNAc(b1-3)]Gal(b1-4)Glc
# How it was run: as §1
# [17] = biological target: Gal(b1-3)GlcNAc(b1-3)Gal(b1-4)[Fuc(a1-3)]GlcNAc
# How it was run: as §1
# [18] = biological target: Gal(b1-3)GlcNAc(b1-3)Gal(b1-4)[Fuc(a1-3)]GlcNAc(b1-6)[Gal(b1-3)GlcNAc(b1-3)]Gal(b1-4)Glc
# How it was run: as §1
# [19] = biological target: Gal(b1-3)GlcNAc(b1-3)GalNAc
# How it was run: as §1
# [20] = biological target: Gal(b1-3)GlcNAc(b1-6)Gal(b1-4)GlcNAc
# How it was run: as §1
# [21] = biological target: Gal(b1-3)GlcNAc(b1-6)GalNAc
# How it was run: as §1
# [22] = biological target: Gal(b1-3)GlcNAc(b1-6)[Gal(b1-3)]GalNAc
# How it was run: as §1
# Gal(b1-3)GlcNAc6S = biological target: Gal(b1-3)GlcNAc6S
# How it was run: as §1
# [23] = biological target: Gal(b1-3)[Fuc(a1-4)]GlcNAc
# How it was run: as §1
# [24] = biological target: Gal(b1-3)[Fuc(a1-4)]GlcNAc(b1-2)Man
# How it was run: as §1
# [25] = biological target: Gal(b1-3)[Fuc(a1-4)]GlcNAc(b1-2)Man(a1-3)[Gal(b1-3)[Fuc(a1-4)]GlcNAc(b1-2)Man(a1-6)]Man(b1-4)GlcNAc(b1-4)[Fuc(a1-6)]GlcNAc
# How it was run: as §1
# [26] = biological target: Gal(b1-3)[Fuc(a1-4)]GlcNAc(b1-3)Gal(b1-3)[Fuc(a1-4)]GlcNAc
# How it was run: as §1
# [27] = biological target: Gal(b1-3)[Fuc(a1-4)]GlcNAc(b1-3)Gal(b1-4)[Fuc(a1-3)]GlcNAc
# How it was run: as §1
# [28] = biological target: Gal(b1-3)[Fuc(a1-4)]GlcNAc(b1-6)GalNAc
# How it was run: as §1
# [29] = biological target: Gal(b1-3)[GlcNAc(b1-6)]GalNAc
# How it was run: as §1
# [30] = biological target: Gal(b1-3)[Neu5Ac(a2-6)]GalNAc
# How it was run: as §1
# [31] = biological target: Gal(b1-3)[Neu5Ac(a2-6)]GlcNAc(b1-4)Gal(b1-4)Glc
# How it was run: as §1
# [32] = biological target: Gal(b1-3)[Neu5Ac(b2-6)]GalNAc
# How it was run: as §1
# Gal(b1-4)Gal = biological target: Gal(b1-4)Gal
# How it was run: as §1
# [33] = biological target: Gal(b1-4)GalNAc(a1-3)[Fuc(a1-2)]Gal(b1-4)GlcNAc
# How it was run: as §1
binder,measurement,setting,value
B1,glycan array binding signal (z-score),Gal(b1-3)GalNAc(b1-3)Gal,-0.217
same,glycan array binding signal (z-score),[1],-0.308
same,glycan array binding signal (z-score),[2],-0.023
same,glycan array binding signal (z-score),[3],0.043
same,glycan array binding signal (z-score),Gal(b1-3)GlcNAc,-0.526
same,glycan array binding signal (z-score),[4],-0.203
same,glycan array binding signal (z-score),[5],0.583
same,glycan array binding signal (z-score),Gal(b1-3)GlcNAc(b1-2)Man,0.295
same,glycan array binding signal (z-score),[6],-0.418
same,glycan array binding signal (z-score),[7],0.296
same,glycan array binding signal (z-score),[8],0.092
same,glycan array binding signal (z-score),[9],0.749
same,glycan array binding signal (z-score),[10],-0.283
same,glycan array binding signal (z-score),[11],-0.665
same,glycan array binding signal (z-score),[12],-0.507
same,glycan array binding signal (z-score),[13],-0.061
same,glycan array binding signal (z-score),[14],-0.049
same,glycan array binding signal (z-score),[15],0.654
same,glycan array binding signal (z-score),[16],-0.037
same,glycan array binding signal (z-score),[17],-0.389
same,glycan array binding signal (z-score),[18],-0.2
same,glycan array binding signal (z-score),[19],-0.184
same,glycan array binding signal (z-score),[20],-0.096
same,glycan array binding signal (z-score),[21],-0.483
same,glycan array binding signal (z-score),[22],0.088
same,glycan array binding signal (z-score),Gal(b1-3)GlcNAc6S,-0.195
same,glycan array binding signal (z-score),[23],0.065
same,glycan array binding signal (z-score),[24],-0.243
same,glycan array binding signal (z-score),[25],-0.28
same,glycan array binding signal (z-score),[26],-0.113
same,glycan array binding signal (z-score),[27],-0.44
same,glycan array binding signal (z-score),[28],-0.059
same,glycan array binding signal (z-score),[29],-0.048
same,glycan array binding signal (z-score),[30],-0.29
same,glycan array binding signal (z-score),[31],-0.502
same,glycan array binding signal (z-score),[32],-0.296
same,glycan array binding signal (z-score),Gal(b1-4)Gal,-0.166
same,glycan array binding signal (z-score),[33],0.256
